{"source": "paper PMC4336329", "about": "(PLoS ONE, 2015)", "note": "Among all 310,000 compounds or so, about 2,200 (0.71%) showed an effect of 50% or more. Effects have a minus sign here. This is one part of the list.", "data": [{"target": "human ether-à-go-go-related gene (hERG) potassium channel (human, UniProt Q12809)", "sequence (Q12809 whole entry, looked up)": "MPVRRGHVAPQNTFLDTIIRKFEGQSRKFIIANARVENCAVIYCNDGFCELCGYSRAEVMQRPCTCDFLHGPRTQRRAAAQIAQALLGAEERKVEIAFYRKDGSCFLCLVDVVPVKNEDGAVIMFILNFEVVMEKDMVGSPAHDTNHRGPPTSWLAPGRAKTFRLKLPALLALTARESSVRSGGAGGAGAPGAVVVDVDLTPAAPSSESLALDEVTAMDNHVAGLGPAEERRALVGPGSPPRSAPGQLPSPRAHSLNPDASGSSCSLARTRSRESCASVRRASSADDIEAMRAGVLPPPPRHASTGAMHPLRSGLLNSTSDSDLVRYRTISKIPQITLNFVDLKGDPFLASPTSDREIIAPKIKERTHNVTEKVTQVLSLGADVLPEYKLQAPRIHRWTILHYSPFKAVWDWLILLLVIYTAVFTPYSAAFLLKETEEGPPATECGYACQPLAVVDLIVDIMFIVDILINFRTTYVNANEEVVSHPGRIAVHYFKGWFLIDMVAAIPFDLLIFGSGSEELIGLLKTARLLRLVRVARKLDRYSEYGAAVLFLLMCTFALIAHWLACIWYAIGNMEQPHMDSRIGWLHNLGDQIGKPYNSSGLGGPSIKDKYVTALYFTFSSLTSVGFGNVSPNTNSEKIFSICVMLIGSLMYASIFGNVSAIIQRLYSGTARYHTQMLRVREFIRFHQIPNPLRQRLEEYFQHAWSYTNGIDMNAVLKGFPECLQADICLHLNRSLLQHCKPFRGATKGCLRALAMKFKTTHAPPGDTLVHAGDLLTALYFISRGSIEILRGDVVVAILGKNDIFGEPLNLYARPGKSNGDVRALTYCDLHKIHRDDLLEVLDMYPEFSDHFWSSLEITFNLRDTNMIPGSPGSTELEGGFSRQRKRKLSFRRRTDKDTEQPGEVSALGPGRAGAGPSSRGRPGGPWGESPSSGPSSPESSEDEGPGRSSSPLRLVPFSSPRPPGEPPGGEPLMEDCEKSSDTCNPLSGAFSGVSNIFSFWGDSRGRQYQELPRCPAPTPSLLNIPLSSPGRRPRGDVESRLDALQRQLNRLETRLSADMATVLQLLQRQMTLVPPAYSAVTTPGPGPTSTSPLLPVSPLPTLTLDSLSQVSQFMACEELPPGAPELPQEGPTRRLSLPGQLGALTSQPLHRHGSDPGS", "experiment": "primary screen, population patch clamp on CHO cells stably expressing hERG", "units": {"hERG current change (%, negative = inhibition) at 1uM": "%"}, "values": [{"compound": "COc1ccc(C2Nc3ccccc3C(=O)N2c2ccccc2)cc1CSc1ccccn1", "note": "(stereo not drawn)", "hERG current change (%, negative = inhibition) at 1uM": 8.41}, {"compound": "Cc1nn(Cc2ccccc2)c(C)c1/C=N/NC(=O)c1ccncc1", "hERG current change (%, negative = inhibition) at 1uM": -15.6}, {"compound": "COc1ccccc1C1(CC(=O)O)CCOC(C)(C)C1", "note": "(stereo not drawn)", "hERG current change (%, negative = inhibition) at 1uM": 12.2}, {"compound": "CC(C)OCCCNC(=O)CCc1nc(-c2ccccc2)no1", "hERG current change (%, negative = inhibition) at 1uM": 15.3}, {"compound": "Cc1ccsc1/C=N/NC(=O)CN1CCN(S(=O)(=O)c2ccc(Br)cc2)CC1", "hERG current change (%, negative = inhibition) at 1uM": -0.365}, {"compound": "O=C(CNC(=O)c1ccc(Br)o1)OCC(=O)c1cccc([N+](=O)[O-])c1", "hERG current change (%, negative = inhibition) at 1uM": -3.61}, {"compound": "O=C(c1ccccc1)N1N=C(C(F)(F)F)CC1(O)c1ccccc1", "note": "(stereo not drawn)", "hERG current change (%, negative = inhibition) at 1uM": 14}, {"compound": "CS(=O)(=O)c1ccc(CNC(=O)C2(C(F)(F)F)C/C(=C/CCO)CCCO2)cc1", "note": "(stereo not drawn)", "hERG current change (%, negative = inhibition) at 1uM": -1.54}, {"compound": "CC(C)OCCCNC(=O)C1CC(=O)N(CCc2ccccc2)C1", "note": "(stereo not drawn)", "hERG current change (%, negative = inhibition) at 1uM": 10.2}, {"compound": "COc1cc(C2=NOC(C(=O)Nc3cc(C)on3)C2)cc(OC)c1OC", "note": "(stereo not drawn)", "hERG current change (%, negative = inhibition) at 1uM": 7.34}, {"compound": "COc1ccc(-c2cn[nH]c2-c2ccc(OCc3ccccc3)cc2O)cc1", "hERG current change (%, negative = inhibition) at 1uM": 11.9}, {"compound": "CC(Oc1ccccc1F)C(=O)NNC(=O)c1cccc(S(=O)(=O)N2CCN(C)CC2)c1", "note": "(stereo not drawn)", "hERG current change (%, negative = inhibition) at 1uM": -5.03}, {"compound": "COc1ccc(-c2onc(C)c2C)cc1S(=O)(=O)NCCc1ccco1", "hERG current change (%, negative = inhibition) at 1uM": 8.93}, {"compound": "Cn1c(SCCN2CCCC2)nnc1C1CCN(S(=O)(=O)c2cccc(F)c2)CC1", "hERG current change (%, negative = inhibition) at 1uM": 10.3}, {"compound": "CCOc1ccc(NCC(=O)N/N=C/C=C/c2ccccc2)cc1", "hERG current change (%, negative = inhibition) at 1uM": 16}, {"compound": "CC(=O)c1cccc(CN2CCC(n3nccc3NC(=O)CCCc3ccccc3)CC2)c1", "hERG current change (%, negative = inhibition) at 1uM": -6.28}, {"compound": "CC1=CC(C)(C)N(C(=O)CSc2ncn[nH]2)c2ccc(C)cc21", "hERG current change (%, negative = inhibition) at 1uM": 7.56}, {"compound": "O=C(c1ccc(-c2ccccc2)cc1)N1CCN(c2ccccc2F)CC1", "hERG current change (%, negative = inhibition) at 1uM": 16.7}, {"compound": "CCCn1c(SCC(=O)c2cc(C)n(C3CC3)c2C)n[nH]c1=O", "hERG current change (%, negative = inhibition) at 1uM": -0.838}, {"compound": "Cc1ccc(Oc2cc(C#N)c(C#N)cc2-n2nnc3ccccc32)cc1C", "hERG current change (%, negative = inhibition) at 1uM": 7.63}, {"compound": "Cc1cc(NC(=O)CCl)on1", "hERG current change (%, negative = inhibition) at 1uM": 9.81}, {"compound": "O=C(COc1ccc(Br)cc1)Nc1ccccc1N1CCCC1", "hERG current change (%, negative = inhibition) at 1uM": 16.8}, {"compound": "COc1cccc(CN(C)C(=O)c2ccc3nccnc3c2)c1", "hERG current change (%, negative = inhibition) at 1uM": 4.64}, {"compound": "COc1ccc(NC(=O)COC(=O)Cc2c[nH]c3ccccc23)cc1OC", "hERG current change (%, negative = inhibition) at 1uM": 12.6}, {"compound": "O=C(CSc1nnc2c(n1)[nH]c1ccc(F)cc12)OCc1ccccc1", "hERG current change (%, negative = inhibition) at 1uM": 17}, {"compound": "CCCc1cc(C(=O)N2CCN(S(=O)(=O)c3ccc(OC)c(OC)c3)CC2)cs1", "hERG current change (%, negative = inhibition) at 1uM": -2.36}, {"compound": "O=S(=O)(NCCOc1ccccc1Cl)c1ccc2oc3ccccc3c2c1", "hERG current change (%, negative = inhibition) at 1uM": 5.41}, {"compound": "O=C(CSCSCC(=O)Nc1ccc2c(c1)OCO2)Nc1ccc2c(c1)OCO2", "hERG current change (%, negative = inhibition) at 1uM": 3.52}, {"compound": "O=C(O)C(=O)O.c1ccc2cc(OCCCn3ccnc3)ccc2c1", "hERG current change (%, negative = inhibition) at 1uM": 6.01}, {"compound": "O=[N+]([O-])c1ccc(N/N=C2\\CC3CC=CC23)c([N+](=O)[O-])c1", "note": "(stereo not drawn)", "hERG current change (%, negative = inhibition) at 1uM": -2.34}, {"compound": "CN1CCN(Cc2c(C(=O)N/N=C/c3cccc(Br)c3)nnn2-c2nonc2N)CC1", "hERG current change (%, negative = inhibition) at 1uM": -29.3}, {"compound": "Cc1cc2nnc(SCC(=O)N3CCOCC3)n2c2ccccc12", "hERG current change (%, negative = inhibition) at 1uM": 6.27}, {"compound": "O=C(NN1C(=O)C2C3C=CC(C4CC34)C2C1=O)c1ccc(Cl)cc1", "note": "(stereo not drawn)", "hERG current change (%, negative = inhibition) at 1uM": 9.69}, {"compound": "O=C1CCC([N+](=O)[O-])C(c2ccc(F)c(Br)c2)N1", "note": "(stereo not drawn)", "hERG current change (%, negative = inhibition) at 1uM": 16.9}, {"compound": "Cc1ccc(CNC(=O)c2c(C)cc(=O)oc2C)cc1", "hERG current change (%, negative = inhibition) at 1uM": -2.82}, {"compound": "CCOC(=O)C1CCCN(C(=O)c2ccc(Cl)cc2)C1", "note": "(stereo not drawn)", "hERG current change (%, negative = inhibition) at 1uM": 5.78}, {"compound": "COc1cccc(/C=N/Nc2ccc(Cl)nn2)c1", "hERG current change (%, negative = inhibition) at 1uM": 13.2}, {"compound": "Cc1[nH]c2ccccc2c1C(=O)CSc1nc2ccccc2c(=O)n1-c1ccccc1F", "hERG current change (%, negative = inhibition) at 1uM": 5.68}, {"compound": "CC(/C=N/n1c(-c2n[nH]c3c2CCC3)n[nH]c1=S)=C\\c1ccco1", "hERG current change (%, negative = inhibition) at 1uM": 21.9}, {"compound": "CN(c1ccccc1)c1nccc(=O)[nH]1", "hERG current change (%, negative = inhibition) at 1uM": 13.9}, {"compound": "O=C(NCCc1ccccc1)c1cnc2ccccc2n1", "hERG current change (%, negative = inhibition) at 1uM": 8.78}, {"compound": "Nc1nnnn1NCc1cccc(OCc2ccccc2)c1", "hERG current change (%, negative = inhibition) at 1uM": 16.5}, {"compound": "Cc1ccc2c(CN3CCN(CCO)CC3)cc(=O)oc2c1C", "hERG current change (%, negative = inhibition) at 1uM": 0.189}, {"compound": "CCN(CC)C(C)C(=O)Nc1c2c(cc3c1CCC3)CCC2.Cl", "note": "(stereo not drawn)", "hERG current change (%, negative = inhibition) at 1uM": 8.92}, {"compound": "O=C(COc1ccccc1Cl)OCC(=O)N1CCN(S(=O)(=O)c2ccccc2)CC1", "hERG current change (%, negative = inhibition) at 1uM": 7.23}, {"compound": "CCOC(=O)COc1c(/C=N\\OC)cc(Cl)cc1OC", "hERG current change (%, negative = inhibition) at 1uM": 5.63}, {"compound": "COc1ccccc1C(O)P(=O)(OC1CCCCC1)OC1CCCCC1", "note": "(stereo not drawn)", "hERG current change (%, negative = inhibition) at 1uM": 3.38}, {"compound": "COC(=O)c1ccc(C(=O)NC2CC(C)(C)Cc3c2cnn3-c2ccc(F)cc2)nc1", "note": "(stereo not drawn)", "hERG current change (%, negative = inhibition) at 1uM": -0.769}, {"compound": "O=C(c1cc(-c2ccc(Br)cc2)nc2ccccc12)N1CCN(c2ccccc2O)CC1", "hERG current change (%, negative = inhibition) at 1uM": 5.36}, {"compound": "Cc1cc(N2CCCC2)ccc1NC(=O)COc1cccc(C(F)(F)F)c1", "hERG current change (%, negative = inhibition) at 1uM": 17.5}, {"compound": "CC(C)N(Cc1nc(-c2ccc(Cl)cc2)no1)C(=O)CCC1CCCC1", "hERG current change (%, negative = inhibition) at 1uM": 4.93}, {"compound": "O=C(C[n+]1cccc(Br)c1)c1cccs1.[Br-]", "hERG current change (%, negative = inhibition) at 1uM": 11.5}, {"compound": "CCOC(=O)Cc1nnc(NC(=O)C23CC4CC(CC(C4)C2)C3)s1", "hERG current change (%, negative = inhibition) at 1uM": 5.96}, {"compound": "CCOc1cccc(C(=O)Nc2ccccc2C(=O)N2CCN(C)CC2)c1", "hERG current change (%, negative = inhibition) at 1uM": 5.41}, {"compound": "CCO[C@H]1OC(C(N)=O)=C[C@@H](c2ccc(Br)cc2)[C@@H]1CCCO", "hERG current change (%, negative = inhibition) at 1uM": -7.37}, {"compound": "Cc1nc2nc(-c3ccc(F)cc3)cn2nc1C", "hERG current change (%, negative = inhibition) at 1uM": 4.73}, {"compound": "COc1cc(OC)cc(C(=O)N[C@H](C(=O)OCC(=O)Nc2ccc(C)cc2C)C(C)C)c1", "hERG current change (%, negative = inhibition) at 1uM": -0.106}]}]}
